# Experimental data taken from PubChem BioAssay AID588342 (National Center for Advancing Translational Sciences (NCATS), 2011).
# The campaign covered roughly 360,000 compounds. About 25,000 (6.9%) were called active. The inconclusive results got no clear call from the source; some entries with a clear call stand among them for comparison. The call rests on the fitted dose curve; in most records, active means well fitted inhibition curve with a large enough effect; inconclusive means small, poorly fitted or top-dose-only effect; inactive means flat fitted curve, though single readings scatter. Where the call is inconclusive, the potency comes from a doubtful curve fit.
# Molecular target: Luciferin 4-monooxygenase (Photinus pyralis) (UniProt P08659)
# Test: qHTS profiling assay for firefly luciferase inhibitor/activator using purifed enzyme and Km concentrations of substrates (counterscreen for miR-21 project); further: nearly all actives have a fitted effect of over 55% in size;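 on activity change, negative = inhibition: plate controls were vehicle for no effect and reference inhibitor for full effect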
# Settings: purified FLuc, luminescence inhibition; series mostly up to 57.5 µM; activity change, negative = inhibition: at the top concentration
# Summary of the method: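 Purified P. pyralis luciferase (10nM final) with 10uM D-luciferin and 10uM ATP (Km levels) in 50mM Tris acetate pH 7.5, 10mM Mg acetate, 0.01% Tween-20, 0.05% BSA; qHTS 6-point titration, ~60 µM downward; luminescence read.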
# Potency means the concentration at half of the fitted maximal effect; tags describe the fitted curve by direction and shape.
# Sequence of UniProt P08659 (P08659 whole entry, looked up): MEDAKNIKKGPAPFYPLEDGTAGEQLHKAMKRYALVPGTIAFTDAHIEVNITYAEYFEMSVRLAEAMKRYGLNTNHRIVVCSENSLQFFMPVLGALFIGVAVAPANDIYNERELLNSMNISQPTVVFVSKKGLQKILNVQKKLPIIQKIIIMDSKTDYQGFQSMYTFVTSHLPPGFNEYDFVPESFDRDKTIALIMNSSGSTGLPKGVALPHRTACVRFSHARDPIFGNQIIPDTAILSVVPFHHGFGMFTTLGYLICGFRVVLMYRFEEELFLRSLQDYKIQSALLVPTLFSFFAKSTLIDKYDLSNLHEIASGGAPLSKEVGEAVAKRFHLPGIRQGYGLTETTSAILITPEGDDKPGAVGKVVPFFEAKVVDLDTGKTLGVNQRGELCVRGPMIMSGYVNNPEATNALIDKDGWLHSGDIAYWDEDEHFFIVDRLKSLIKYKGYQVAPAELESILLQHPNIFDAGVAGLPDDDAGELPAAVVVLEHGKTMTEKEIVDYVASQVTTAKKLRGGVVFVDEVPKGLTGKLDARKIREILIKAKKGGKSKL
Structure (SMILES),"activity change, negative = inhibition",Potency
CN(CC(=O)NC(=O)NC(C)(C)C)CC(=O)Nc1ccccc1Cl,inactive: -2.12%,
c1ccc(Sc2cnc3ccccc3n2)cc1,,active: 21.3 µM
O=C(Nc1cccc(Cl)c1)Nc1ccc2nccnc2c1,,active: 19 µM
Cc1ccc(C(=O)NCc2ccccc2)cc1NC(=O)c1nsc2ccccc12,,"inconclusive: 12 µM [inhibitor, partial curve, poor fit]"
COc1cccc(/C=C/c2nc(C#N)c(NCC(C)C)o2)c1,,"inconclusive: 26.9 µM [inhibitor, partial curve]"
O=C(Nc1nccs1)c1ccc(COc2ccccc2)o1,,"inconclusive: 3.01 µM [inhibitor, full curve]"
CCc1ccc(OCC(=O)Nc2cc(-c3nc4cc(C)ccc4o3)ccc2C)cc1,,"inconclusive: 15.1 µM [inhibitor, partial curve, poor fit]"
O=C(COc1ccccc1)N/N=C/c1cc2c(cc1[N+](=O)[O-])OCO2,,"inconclusive: 37.9 µM [inhibitor, partial curve, poor fit]"
O=C(COC(=O)c1ccc2ncsc2c1)Nc1ccc(Cl)cc1,inactive: -0.692%,
COCC(C)n1c(C)cc(C(=O)COC(=O)c2ccc3c(c2)NC(=O)CS3)c1C (centres undefined),,"inconclusive: 30.1 µM [inhibitor, partial curve, poor fit]"
COc1ccc(C(C(=O)NCC2CCCO2)N(Cc2ccco2)C(=O)c2snc(C(N)=O)c2N)cc1OC (centres undefined),inactive: -1.04%,
Cc1ccc(-n2nc(-c3ccco3)cc2C(=O)NCc2cccnc2)cc1,,"inconclusive: 21.3 µM [inhibitor, partial curve, poor fit]"
CCOC(=O)N1CCN(C(=O)c2ccccc2NC(=O)c2ccc(C(C)(C)C)cc2)CC1,,"inconclusive: 6.75 µM [inhibitor, partial curve, poor fit]"
CCOc1ccc(C(=O)Nc2cc(C)on2)cc1,,active: 3.38 µM
O=C(COc1ccccc1Br)NCc1ccccn1,,"inconclusive: 21.3 µM [inhibitor, partial curve]"
COCC(=O)Nc1nc2ccc(S(C)(=O)=O)cc2s1,,"inconclusive: 21.3 µM [inhibitor, partial curve, poor fit]"
O=C1N=c2ccc(Br)cc2=C1c1sc(=S)n(NS(=O)(=O)c2ccccc2)c1O,,"inconclusive: 23.9 µM [inhibitor, single point]"
Cc1ccc2oc(-c3cc(NC(=O)c4oc5ccccc5c4C)ccc3Cl)nc2c1,,"inconclusive: 21.3 µM [inhibitor, partial curve, poor fit]"
Cc1ccc2oc(=O)n(Cc3ccccc3Cl)c2c1,inactive: -17.7%,
Cc1cccc(-n2c(C)cc(/C=C3\NC(=O)NC3=O)c2C)c1,,active: 6.75 µM
c1ccc2c(c1)CCN(c1ncnc3nc[nH]c13)C2,inactive: -0.954%,
Cc1nn(-c2cc(C)c3ccccc3n2)c2c1CCC2,,"inconclusive: 6.01 µM [inhibitor, partial curve]"

Structure (SMILES),"activity change, negative = inhibition",Potency
CCc1ccc(OCC(=O)N/N=C(\C)c2ccc(-n3ccnc3)cc2)cc1,,active: 1.35 µM
CC(C)(C)c1ccc(C(=O)NCCC(=O)Nc2ccc(S(=O)(=O)Nc3nccs3)cc2)cc1,,"inconclusive: 16.9 µM [inhibitor, partial curve]"
Cc1nnc(N2C(=O)C(=O)/C(=C(\O)c3ccc4c(c3)CC(C)O4)C2c2ccccc2)s1 (centres undefined),,"inconclusive: 37.9 µM [inhibitor, partial curve, poor fit]"
Cc1[nH]c2ccc(-c3nnc(SCC(=O)N4CCCc5ccccc54)o3)cc2c1C,,"inconclusive: 5.36 µM [inhibitor, partial curve]"
Cc1ccc(-n2nc(C)c3c(-c4cccs4)c(C#N)c(N)nc32)cc1,,"inconclusive: 19 µM [inhibitor, single point]"
c1ccc(N2CCN(c3nc4cc5c(cc4s3)OCCO5)CC2)cc1,,"inconclusive: 0.849 µM [inhibitor, full curve]"
O=C(Nc1nc(N2C(=O)c3ccccc3C2=O)n(-c2ccccc2)n1)c1ccc(Cl)cc1,,"inconclusive: 21.3 µM [inhibitor, partial curve, poor fit]"
Cc1ccc(C(=O)Oc2cc(C)n(C)c(=O)c2)cc1,,active: 15.1 µM
Cc1ccc(OCC(=O)c2cc(C)n(C)c2C)c([N+](=O)[O-])n1,,"inconclusive: 30.1 µM [inhibitor, partial curve, poor fit]"
Cc1ccc2onc(CNC(=O)NCc3ccccc3)c2c1,,"inconclusive: 12 µM [inhibitor, partial curve, poor fit]"
COC(=O)c1sc(S(=O)(=O)Nc2ccc(C)c(C)c2)c(C(=O)OC)c1C,inactive: 0.289%,
O=C(OCc1nnc(-c2ccc(Cl)cc2)o1)c1ccc(=O)n(Cc2ccccc2)n1,,"inconclusive: 21.3 µM [inhibitor, single point]"
COc1ccc([C@H]2CC(=O)C=C(c3ccc(OC)cc3OC)C2)cc1,,"inconclusive: 15.1 µM [inhibitor, partial curve, poor fit]"
CSc1nc(C)c(CCOC(=O)c2cccc(C)c2)c(=O)[nH]1,inactive: -9.16%,
O=C(COc1ccccc1)Nc1nnc(SCc2cc(=O)n3cc(Cl)ccc3n2)s1,,"inconclusive: 4.78 µM [inhibitor, partial curve, poor fit]"
Cc1cc2ncn(/N=C/c3cccnc3)c2cc1C,,"inconclusive: 13.5 µM [inhibitor, partial curve, poor fit]"
CCN(CC)c1ccc2cc(C(C)=O)c(=O)oc2c1,,"inconclusive: 21.3 µM [inhibitor, partial curve]"
c1ccc(SCc2cc(-c3ccccc3)no2)cc1,,active: 8.49 µM
CCCCCCCC1CC(CSc2ncn[nH]2)OC1=O (centres undefined),,"inconclusive: 5.36 µM [inhibitor, single point]"
CCCc1nn2cc(-c3ccc(C)c(C)c3)nc2s1,,active: 0.19 µM
O=c1[nH]c2ccc(NCc3ccc(-c4ccc(F)cc4)o3)cc2[nH]1,inactive: 6.81%,
CCOC(=O)c1sc2nc(C)nc(SCC(=O)N(CC)C3CCS(=O)(=O)C3)c2c1C (centres undefined),,"inconclusive: 26.9 µM [inhibitor, partial curve, poor fit]"
